Reference: publication PMC8536799 (Journal of medicinal chemistry, 2021)

How the values were obtained:
SARS-CoV-2 M^pro [1] = target: T1, SARS-CoV-2 M^pro (Severe acute respiratory syndrome coronavirus 2, UniProt P0DTD1); details: versus compound 13
SARS-CoV-2 M^pro [2] = target: T1, SARS-CoV-2 M^pro; assay: Native mass spectrometry binding assay; details: 10 μM and 30 μM ligand, 4 mM DTT
SARS-CoV-2 M^pro [3] = target: T1, SARS-CoV-2 M^pro; assay: Enzymatic kinetic studies; type: biochemical; details: for mode of inhibition (Lineweaver-Burk plot): double-reciprocal plot, intercept at the Y-axis

| SMILES | fold increase in M^pro inhibition compared to compound 13 (SARS-CoV-2 M^pro [1]) [fold] | binding stoichiometry, native mass spectrometry (SARS-CoV-2 M^pro [2]) | Ki (SARS-CoV-2 M^pro [3]) [nM] | mode of inhibition (Lineweaver-Burk plot) (SARS-CoV-2 M^pro [3]) |
| --- | --- | --- | --- | --- |
| C[C@H](NC(=O)C(c1cccnc1)N(C(=O)c1ccco1)c1ccc([Si](C)(C)C)cc1)c1ccccc1 (stereo partly drawn) [Compound 14, 2-[1-(furan-2-yl)-N-[4-(trimethylsilyl)phenyl]formamido]-N-[(1S)-1-phenylethyl]-2-(pyridinyl)acetamide] | 2.9 | – | – | – |
| C[C@H](NC(=O)[C@@H](c1cccnc1)N(C(=O)c1ccco1)c1ccc(-c2ccccc2)cc1)c1ccccc1 [Compound 23R, (2R)-2-(N-{[1,1’-biphenyl]-4-yl}-1-(furan-2-yl)formamido)-N-[(1S)-1-phenylethyl]-2-(pyridin-3-yl)acetamide] | – | one drug per monomer | 70 | competitive inhibitor |
| CC(C)(C)NC(=O)C(c1cccnc1)N(C(=O)c1ccco1)c1ccc(C(C)(C)C)cc1 (centres unmarked) [ML188 (1), N-tert-butyl-2-[N-(4-tert-butylphenyl)-1-(furan-2-yl)formamido]-2-(pyridin-3-yl)acetamide, reference compound] | – | – | – | competitive inhibitor |
